# Experimental data published in publication PMC4336329 (PLoS ONE, 2015).
# The campaign covered roughly 310,000 compounds. About 14,000 (4.5%) showed an effect of 50% or more. The effect is printed as a negative number. The list shows a part of the results.
# Molecular target: human ether-à-go-go-related gene (hERG) potassium channel (human, UniProt Q12809)
# Assay: primary screen, population patch clamp on CHO cells stably expressing hERG
# 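Note: peak tail current of the secondary pulse compared with the same well before compound.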
# Chain of human ether-à-go-go-related gene (hERG) potassium channel (Q12809 whole entry, looked up): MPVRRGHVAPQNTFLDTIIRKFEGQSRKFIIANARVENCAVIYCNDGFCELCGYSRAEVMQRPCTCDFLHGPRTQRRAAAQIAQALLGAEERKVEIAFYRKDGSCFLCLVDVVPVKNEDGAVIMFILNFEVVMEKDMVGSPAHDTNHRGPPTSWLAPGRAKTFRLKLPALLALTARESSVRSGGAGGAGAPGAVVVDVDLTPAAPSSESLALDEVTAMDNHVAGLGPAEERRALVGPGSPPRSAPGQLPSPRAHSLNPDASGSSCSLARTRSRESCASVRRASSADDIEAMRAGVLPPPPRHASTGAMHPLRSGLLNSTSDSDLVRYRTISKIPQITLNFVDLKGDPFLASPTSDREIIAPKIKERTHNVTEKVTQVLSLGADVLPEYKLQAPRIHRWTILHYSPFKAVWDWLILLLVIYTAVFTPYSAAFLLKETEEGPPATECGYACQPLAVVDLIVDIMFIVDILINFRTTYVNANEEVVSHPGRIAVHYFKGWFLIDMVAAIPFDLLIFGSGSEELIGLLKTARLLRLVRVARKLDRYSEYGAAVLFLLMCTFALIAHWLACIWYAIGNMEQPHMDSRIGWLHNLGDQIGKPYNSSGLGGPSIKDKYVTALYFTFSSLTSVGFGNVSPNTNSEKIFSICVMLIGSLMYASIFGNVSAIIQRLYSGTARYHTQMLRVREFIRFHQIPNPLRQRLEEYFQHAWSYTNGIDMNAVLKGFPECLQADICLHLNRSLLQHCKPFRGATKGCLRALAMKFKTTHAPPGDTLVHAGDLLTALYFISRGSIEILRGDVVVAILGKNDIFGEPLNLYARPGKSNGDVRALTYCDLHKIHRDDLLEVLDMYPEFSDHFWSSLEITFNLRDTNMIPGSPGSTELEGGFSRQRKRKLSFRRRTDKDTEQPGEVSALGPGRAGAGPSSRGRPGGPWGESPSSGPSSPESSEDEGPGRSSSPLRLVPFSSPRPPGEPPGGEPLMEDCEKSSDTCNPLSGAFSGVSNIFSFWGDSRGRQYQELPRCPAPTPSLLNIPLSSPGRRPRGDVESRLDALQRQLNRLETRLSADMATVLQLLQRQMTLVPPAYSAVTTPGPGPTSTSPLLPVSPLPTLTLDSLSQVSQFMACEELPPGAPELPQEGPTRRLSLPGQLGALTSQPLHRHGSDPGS
row,SMILES,"hERG current change (%, negative = inhibition) at 10uM"
1,CN(CC1CCOCC1)C(=O)CC1C(=O)NCCN1C/C=C/c1ccccc1 (stereo not shown),9.57%
2,O=C(NCC1(N2CCOCC2)CCCCC1)c1cccc(S(=O)(=O)Nc2ccc(F)cc2)c1,-44.1%
3,CC(C)OC(=O)CC(=O)CSc1nc2c(cc1C#N)CCCCC2,5.58%
4,Cc1cc(C)cc(NC(=O)CCc2nc3sc4c(c3c(=O)[nH]2)CCCC4)c1,-12.4%
5,NC1=NC(=O)/C(=C/C=C/c2cccs2)S1,6.07%
6,CC(=O)Nc1cccc(C(=O)N/N=C/c2ccc(C)o2)c1,18.1%
7,CC(C)CN1CC(=O)N2C(c3ccccc3)c3[nH]c4ccccc4c3C[C@H]2C1=O (stereo partly shown),-21.2%
8,O=C(C1CCCN(S(=O)(=O)c2ccccc2[N+](=O)[O-])C1)N1CCN(c2ccccc2)CC1 (stereo not shown),-38.1%
9,Cc1ccc2c(c1)nnn2C1CCN(CC(=O)Nc2ccc(F)cc2)CC1,-65.4%
10,CCCCCCCCCC[n+]1cccc(C(=O)N(CC)CC)c1.[Br-],-0.215%
11,COC(=O)c1c(-c2cccs2)csc1NC(=O)CSc1ncnc2sc(C)c(C)c12,0.474%
12,Cc1cc(/C=C(\C#N)C(=O)NC2CCCCCC2)c(C)n1C,2.29%
13,Cc1ccc(NC(=O)CCC(=O)OCC(=O)c2ccc(Oc3ccc([N+](=O)[O-])cc3)cc2)cc1C,-1.43%
14,COc1ccccc1C(C[N+](=O)[O-])c1c(N)n(C)c(=O)n(C)c1=O (stereo not shown),-3.21%
15,COc1ccc(OC)c(NC(=O)Nc2cc(NC(=O)Nc3cc(OC)ccc3OC)c(C)nc2C)c1,11.8%
16,Cn1c(CC(=O)Nc2ccccc2C(F)(F)F)c(Sc2ccccc2)c2ccccc21,15.9%
17,O=C(CNC(=O)c1ccccc1O)N/N=C/c1ccccn1,2.92%
18,CCCCn1c(N)c(N(CCC)C(=O)C2CCCC2)c(=O)[nH]c1=O,-20.8%
19,CN(CCc1ccccn1)C(=O)c1cccnc1Oc1ccc(Cl)cc1,-19.5%
20,COc1ccc2c(CCN)c[nH]c2c1.Cl,11.2%
21,Cc1ccc(SCc2ccc(C(=O)Nc3ccccc3Br)cc2)cc1,-19%
22,CCOC(=O)C(NS(=O)(=O)c1ccc(Br)cc1)C(C)C (stereo not shown),-20.8%

row,SMILES,"hERG current change (%, negative = inhibition) at 10uM"
1,c1ccc(Cc2noc(CN3CCN(Cc4ccc5c(c4)OCO5)CC3)n2)cc1,-28.1%
2,CCN1CCN(S(=O)(=O)c2ccc(Cl)c(C(=O)Nc3cc(Cl)ccc3N3CCOCC3)c2)CC1,1.7%
3,Cc1ccccc1OCC(O)CN1CCN(CCN2C(=O)c3cccc4cccc(c34)C2=O)CC1 (stereo not shown),-74.2%
4,O=C(NCCCN1CCOCC1)C(C(=O)NCCCN1CCOCC1)c1ncc(C(F)(F)F)cc1Cl,29.2%
5,C#CCOC(=O)CCC(=O)NCCc1ccccc1,8.88%
6,Cc1ccc(N2CCN(S(=O)(=O)c3ccc4oc(=O)ccc4c3)CC2)c(C)c1,24.2%
7,Cc1ccccc1OCC(=O)NNC(=O)CCc1ccccc1,7.35%
8,CC1CCCCN1S(=O)(=O)c1ccc(C(=O)N(CCCN(C)C)c2nc3cc4c(cc3s2)OCO4)cc1.Cl (stereo not shown),-81.1%
9,COc1ccc(-c2cc(-c3ccccc3)nc(SC(C)C(=O)O)c2C#N)cc1 (stereo not shown),12.5%
10,CCN(CC(=O)Nc1c(F)cccc1F)C(=O)CNC(=O)c1ccc(Br)o1,2.75%
11,CC(C)Cc1nnc(NC(=O)Cc2ccccc2[N+](=O)[O-])s1,-12%
12,O=C(Nc1ccc(OC(F)F)c(Cl)c1)c1ccccn1,26.1%
13,Cc1cc(C)cc(NC(=O)Cn2c(=O)oc3cc(S(=O)(=O)N4CC(C)CC(C)C4)ccc32)c1 (stereo not shown),-16.5%
14,Cc1ccccc1Sc1c(C#N)c(-c2ccccc2)nn1C,10.7%
15,Cc1cccc(-n2c(SCC(=O)NC3CCCC3)nnc2-c2ccoc2C)c1,-83.2%
16,COc1ccc(OC)c(NC(=O)C2CCN(S(=O)(=O)c3ccc4c(c3)CC(C)N4C(C)=O)CC2)c1 (stereo not shown),-1.72%
17,COc1ccc(SCC(=O)Nc2ccccc2Cl)cc1,15.8%
18,Cn1nc([N+](=O)[O-])nc1Oc1ccccc1,-5.63%
19,CCCCn1c(=S)[nH]c2cc(S(=O)(=O)N3CCCCC3)ccc21,8.44%
20,CC1=C(C(N)=O)C(c2ccc(Cl)cc2)NC(=O)N1 (stereo not shown),-6.74%
21,CC(=O)N(CC(O)CO)c1c(I)c(C(=O)NCC(O)CO)c(I)c(C(=O)NCC(O)CO)c1I (stereo not shown),4.42%
22,O=C(CNC(=O)c1ccccc1F)NNC(=O)c1ccccc1O,6.62%

row,SMILES,"hERG current change (%, negative = inhibition) at 10uM"
1,Cc1cnc(C(=O)OCC(=O)N=c2sccn2Cc2ccccc2Cl)cn1,10.1%
2,COc1ccc([N+](=O)[O-])cc1NC(=O)Cc1noc2ccccc12,20.6%
3,CN1C(=O)CC(N2CCN(CC(N)=O)CC2)C1=O (stereo not shown),22.5%
4,Oc1ccccc1-c1nc2c3ccccc3c3ccccc3c2[nH]1,13.5%
5,COc1cccc(OC)c1C(=O)Nc1c(C(=O)N2CCN(c3ccccn3)CC2)oc2ccccc12,-61.6%
6,S=c1[nH]nc(-c2ccc(Cl)cc2)n1/N=C/c1ccco1,14.3%
7,CCOC1(C)OCC(=O)[C@]2(CCC3C4CCC5=CC(=O)C=CC5(C)C4C(=O)CC32C)O1 (stereo partly shown),3.93%
8,Cc1ccc(C(=O)NC2CCCc3ccccc32)o1 (stereo not shown),-27%
9,N=c1c(C(=O)NCc2ccco2)cc2c(=O)n3ccccc3nc2n1Cc1ccccc1,-79.3%
10,CN1CCc2c(sc(NC(=O)Cc3ccccc3)c2C(N)=O)C1.Cl,-16.2%
11,COc1cccc(CNC(=O)CCNS(=O)(=O)c2ccc(C)cc2)c1,-6.46%
12,C[C@H]1CCC(=O)N([C@H](CSc2ccccc2)Cc2ccccc2)CC1,-37%
13,Cc1cc(=O)[nH]c(SCc2cc(=O)n3nc(C)sc3n2)n1,5.82%
14,C#CCCCc1nc2ccccc2c(=O)n1N,17.1%
15,O=C(CCn1c(=O)oc2ccccc21)N1CCC2(CC1)OCCO2,7.76%
16,Cc1cc(C(F)(F)F)nc(NCc2ccc(F)cc2)n1,12.1%
17,COC(=O)[C@@]12CCCCN1[C@H](c1ccc(-c3cccc(Cl)c3)c(OC)c1)[C@H]1C(=O)N(C)C(=O)[C@H]12.O=C(O)C(F)(F)F,-12.9%
18,Cn1c(CCCOc2ccc(Cl)cc2Cl)nnc1SCC(=O)Nc1nccs1,-12.2%
19,CCCSc1ccc([C@@H]2[C@@H]3C(=O)N(C)C(=O)[C@@H]3[C@]3(C(=O)OC)CCCN23)cc1OC.O=C(O)C(F)(F)F,-2.11%
20,O=C(/C=C/c1ccccc1Cl)N1CCN(c2ncccn2)CC1,-32.4%
21,CCC(CC)NC(=O)C1CCN(S(=O)(=O)c2cccs2)CC1,1.92%
22,COc1ccc(-c2csc(NC(=O)C3=COCCO3)n2)c(OC)c1,-18.9%

row,SMILES,"hERG current change (%, negative = inhibition) at 10uM"
1,Cc1ccc(NC(=O)CN(C)Cc2ccc(F)cc2)c([N+](=O)[O-])c1,-17.8%
2,CCN(CC)S(=O)(=O)c1cccc(NC(=O)CN(C)C2CCCCC2)c1,-33.6%
3,COc1cc(S(=O)(=O)NCC2CCCO2)c(OC)cc1Cl (stereo not shown),10.6%
4,O=C(Nc1cccc2ccccc12)/C(=C/c1ccc([N+](=O)[O-])cc1)NC(=O)c1ccccc1,-55.6%
5,CC(Nc1ccccc1)C(=O)Nc1ccc(F)cc1 (stereo not shown),-26.5%
6,O=c1c2ccccc2nc(CSc2nnnn2-c2ccccc2)n1-c1ccccc1Cl,9.41%
7,CCc1ccc(NC(=O)CS(=O)CC(=O)NC(C)CCc2ccco2)cc1 (stereo not shown),9.65%
8,Cc1ccc(C(C)NC(=O)c2ccncc2)c(C)c1 (stereo not shown),16.4%
9,CCCCOCCCNC(=O)c1ccc(OC)cc1,-6.63%
10,CSc1nc(NS(=O)(=O)c2cc(C)c(Cl)cc2Cl)nn1C,8.93%
11,O=C(OCC(=O)N1CCN(C(=O)c2ccco2)CC1)c1cc(-c2ccco2)nc2ccccc12,-69.7%
12,Cc1ccc(NC(=O)CSc2nnc(COc3ccccc3C)o2)cc1,16.5%
13,Cc1ccc(NC(=O)c2ccc([N+](=O)[O-])o2)c(C)c1,18.7%
14,O=C1NCC(c2ccccc2)C1C(=O)N/N=C\c1ccc(-c2cccc(Cl)c2Cl)o1 (stereo not shown),11.3%
15,COc1cc(/C=N/NC(=O)c2nnn(-c3nonc3N)c2C(C)C)ccc1OCc1ccccc1,12.1%
16,Cc1cccc(-n2c(O)c(C=NCCN3CCNCC3)c(=O)[nH]c2=S)c1,13.1%
17,O=C(CSc1nnc(CNC(=O)c2ccccc2)o1)NCc1ccccc1,18.4%
18,COc1cc(/C=N/N2C(=O)C3C4c5ccccc5C(c5ccccc54)C3C2=O)ccc1O (stereo not shown),-4.13%
19,CCCc1c(C(=O)Nc2cc(C(C)(C)C)on2)cnn1-c1ccccc1,10.6%
